Data taken from PubChem BioAssay (Tox21).
“And” between values parts separate entries of the source, which are not always exact repeats. Equal values may be shown once. Inconclusive means that the source gave no clear call. Such entries were picked first, then a sample of the others. A potency beside an inconclusive call is a rough fit, not a confirmed value. The source made the active and inactive calls. Calls follow the shape of the dose curve; as a rule, active = well fitted cell-killing curve with a large enough effect in the repeat runs; inconclusive = weak or mixed curves; inactive = flat fitted curve, though single readings scatter.

assay: qHTS RealTime-Glo MT Cell Viability Assay in HepG2 cells - 32 hour (AID 1224877); details: RealTime-Glo luminescence; series mostly up to 76.8 µM; also: nearly all actives have a fitted effect of over 55% in size
Description: U.S. Tox21 Program National Center for Advancing Translational Sciences [NCATS] NIH Chemical Genomics Center [NCGC] U.S. Environmental Protection Agency [EPA] National Institutes of Environmental Health Sciences [NIEHS] National Toxicology Program [NTP] U.S. Food and Drug Administration [FDA] Tox21 Assay Overview: Measure of cell viability is critical in the cell-base assay. Analysis of cell viability is necessary for the characterization of cell responses to cytotoxic drugs and environmental stress. A RealTime-Glo MT Cell Viability Assay to monitor cell viability in real time of continues cell culture during 40 hours of compound treatment was used to screen Tox21 10K library compounds in HepG2 cells. The RealTime-Glo MT Cell Viability Assay is a nonlytic, homogeneous, bioluminescent method to measure cell viability in real time using a simple, plate-based method. The assay involves adding NanoLuc luciferase and a cell-permeant prosubstrate to cells in culture. Viable cells reduce the proprietary prosubstrate to generate a substrate for NanoLuc luciferase. This substrate diffuses from cells into the surrounding culture medium, where it is rapidly used by the NanoLuc Enzyme to produce a luminescent signal. The signal correlates with the number of viable cells, making the assay well suited for cytotoxicity studies.
Tox21 Assay Protocol Summary: The mixture of HepG2 cell suspension and reagents were dispensed at 600cells/6 ul/well in 1536-well tissue culture treated black solid bottom plates using a Multidrop dispenser. After the assay plates were incubated at a 37 C/5% CO2 incubator for 5 hours, 23 nL of compounds dissolved in DMSO, positive and negative controls was transferred to the assay plate by a pintool work station. The plates were incubated at 37 C for 40 hours. The luminescence intensity were measured at 0h, 8h, 16h, 24h, 32h and 40h time points using ViewLux plate reader during compound treatment.
% is scaled to controls: 0 for no effect and ±100 for the full control effect; potency is read from the fitted curve at half-maximal effect; tags tell the direction and shape of the fitted curve.

Row | Structure (SMILES) | Potency | activity change, negative = cytotoxic
1 | CC[C@@H]([C@H](C)O)n1ncn(-c2ccc(N3CCN(c4ccc(OC[C@@H]5CO[C@@](Cn6cncn6)(c6ccc(F)cc6F)C5)cc4)CC3)cc2)c1=O | inconclusive: 9.52 µM [cytotoxic, partial curve] | 
2 | CCCCCc1ccco1 | inactive | 
3 | O[C@@H](CNC[C@H](O)[C@H]1CCc2cc(F)ccc2O1)[C@@H]1CCc2cc(F)ccc2O1 | active: 15.1 µM | 
4 | CCN(CCC#N)c1ccc(N=Nc2c(Cl)cc([N+](=O)[O-])cc2Cl)cc1 | inconclusive: 49 µM [cytotoxic, partial curve] | 
5 | CCCN1CCCC[C@H]1C(=O)Nc1c(C)cccc1C | inactive | 
6 | Cc1cc2nc3ccc(=[N+](C)C)cc-3sc2cc1N | active: 19 µM | 
7 | CCCCCCCC/C=C\CCCCCCCCN | inconclusive: 26.8 µM [cytotoxic, single point] | 
8 | O=C(OCC(O)CO)c1ccccc1Nc1ccnc2cc(Cl)ccc12 (stereo not given) | inconclusive: 26.8 µM [cytotoxic, single point] | 
9 | O=c1[nH]cc(F)c(=O)[nH]1 | inactive | 
10 | Cc1ccc(C(=O)Oc2ccc(C(O)CNC(C)(C)C)cc2OC(=O)c2ccc(C)cc2)cc1 (stereo not given) | active: 23.9 µM | 
11 | Nc1c2c(nc3ccccc13)CCCC2O (stereo not given) | inactive | 
12 | O=C(NCCN1CCOCC1)c1ccc(Cl)cc1 | inactive | 
13 | COc1cc2c(cc1OC)C(C(C(=O)N(CCc1ccc(OC)c(OC)c1OC)CCc1ccc(OC)c(OC)c1OC)c1ccccc1)=NCC2 (stereo not given) | inconclusive: 21.3 µM [cytotoxic, partial curve, poor fit] | 
14 | COc1cc(Nc2c(C#N)cnc3cc(OCCCN4CCN(C)CC4)c(OC)cc23)c(Cl)cc1Cl | active: 21.3 µM | 
15 | COc1ccc(C)cc1[N+](=O)[O-] | inactive | 
16 | CC(=O)S[C@@H]1CC2=CC(=O)CC[C@]2(C)[C@H]2CC[C@@]3(C)[C@@H](CC[C@@]34CCC(=O)O4)[C@H]12 | inconclusive: 49 µM [cytotoxic, partial curve, poor fit] | 
17 | OC1CCCc2ccccc21 (stereo not given) | inactive | 
18 | CN(C)CCCN1c2ccccc2CCc2ccccc21 | inconclusive: 54.9 µM [cytotoxic, partial curve, poor fit] | 
19 | [Cu+] | active: 49 µM | 
20 | O=C1CCCCCN1SSN1CCCCCC1=O | inconclusive: 54.9 µM [cytotoxic, single point] | 

Row | Structure (SMILES) | Potency | activity change, negative = cytotoxic
21 | C[C@@H](O)[C@H](N)C(=O)O |  | inactive: -3.46% [at 15.8 µM]
22 | CC(C)N(C)C | inactive | 
23 | Cc1nccn1-c1ccc(Sc2cccc(C3(C(N)=O)CCOCC3)c2)cc1 | inconclusive: 43.6 µM [cytotoxic, partial curve, poor fit] | 
24 | O=C(O)c1cccc(C(=O)O)c1C(=O)O | inactive | 
25 | CC(C)COCC(CN(Cc1ccccc1)c1ccccc1)N1CCCC1 (stereo not given) | active: 21.3 µM | 
26 | C[C@@H](CN1CC(=O)NC(=O)C1)N1CC(=O)NC(=O)C1 | inactive | 
27 | CC(C)c1c(C(=O)Nc2ccccc2)c(-c2ccccc2)c(-c2ccc(F)cc2)n1CC[C@@H](O)C[C@@H](O)CC(=O)O | inactive and inconclusive: 13.4 µM [cytotoxic, partial curve, poor fit] | 
28 | N=C(N)c1ccc(OCCCCCOc2ccc(C(=N)N)cc2)cc1 | inconclusive: 48.8 µM [cytotoxic, partial curve] and inconclusive: 41.7 µM [cytotoxic, partial curve, poor fit] | 
29 | COc1ccc(S(=O)(=O)N2C(=O)[C@@](c3ccccc3OC)(N3C[C@H](O)C[C@H]3C(=O)N(C)C)c3cc(Cl)ccc32)c(OC)c1 | inconclusive: 49 µM [cytotoxic, partial curve] | 
30 | c1cc(N(CC2CO2)CC2CO2)ccc1Cc1ccc(N(CC2CO2)CC2CO2)cc1 (stereo not given) | inconclusive: 49 µM [cytotoxic, single point] | 
31 | Fc1ccc([C@@H]2CCNC[C@H]2COc2ccc3c(c2)OCO3)cc1 | inconclusive: 26.8 µM [cytotoxic, single point] | 
32 | O=S(=O)(O)c1ccc(N=Nc2c(O)ccc3ccccc23)cc1 | inconclusive: 49 µM [cytotoxic, partial curve] | 
33 | CC[N+](CC)(CC)CCOc1ccc(/C=C/c2ccccc2)cc1 | active: 26.8 µM | 
34 | COC(=O)NN | inactive | 
35 | COC(=O)C1=C(C)NC(C)=C(C(=O)OCC(C)=O)C1c1ccccc1[N+](=O)[O-] (stereo not given) | inactive | 
36 | COc1cc(S(=O)(=O)O)c(C)cc1N=Nc1c(O)ccc2cc(S(=O)(=O)O)ccc12 | inconclusive: 38.9 µM [cytotoxic, partial curve, poor fit] | 
37 | CCCc1ccc(OCC(=O)N2CCN(C(=O)COc3ccc(CCC)cc3OC)CC2)c(OC)c1 | inconclusive: 16.9 µM [cytotoxic, partial curve, poor fit] | 
38 | O=c1[nH]c2ccccc2n1CCCN1CCN(C(c2ccccc2)c2ccccc2)CC1 | active: 26.8 µM | 
39 | CCc1nn(CCCN2CCN(c3cccc(Cl)c3)CC2)c(=O)n1CCOc1ccccc1 | inconclusive: 26.8 µM [cytotoxic, single point] | 
40 | COC(C)(C)OC | inactive | 
